{"source": "PubChem BioAssay AID485344", "about": "(National Center for Advancing Translational Sciences (NCATS), 2010)", "note": "Out of some 340,000 compounds screened, about 6,900 (2%) were called active. No stated cut-off is given here; in the data, active means inhibition above about 30%; inactive means below that, where a call was filed. This is a selection; strong and weak results do not stand in their true shares. The source gives no active or inactive call for entries shown without one.", "data": [{"target": "D(2) dopamine receptor (Homo sapiens) (UniProt P14416)", "sequence (P14416 whole entry, looked up)": "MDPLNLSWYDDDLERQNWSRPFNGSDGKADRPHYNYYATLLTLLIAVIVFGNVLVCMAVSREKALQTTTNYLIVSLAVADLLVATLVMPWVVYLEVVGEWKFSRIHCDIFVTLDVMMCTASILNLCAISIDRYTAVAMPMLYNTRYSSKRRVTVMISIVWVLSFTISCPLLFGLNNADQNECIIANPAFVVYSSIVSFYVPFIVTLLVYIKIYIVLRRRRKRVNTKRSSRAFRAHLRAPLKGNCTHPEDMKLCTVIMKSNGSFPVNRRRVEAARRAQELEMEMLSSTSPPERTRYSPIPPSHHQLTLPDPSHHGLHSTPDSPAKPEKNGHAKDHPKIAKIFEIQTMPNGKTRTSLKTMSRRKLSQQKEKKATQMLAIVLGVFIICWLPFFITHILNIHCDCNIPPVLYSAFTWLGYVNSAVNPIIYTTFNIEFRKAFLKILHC", "experiment": "HTS Assay for Allosteric Antagonists of the Human D2 Dopamine Receptor: Primary Screen for Antagonists; further: 0% is about no effect", "details": "HEK293 TREx D2 cells, calcium flux, dopamine EC80; at 10 µM; stronger effect = higher value", "in_short": "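Compounds are added to dye-loaded, induced HEK293 T-REx cells coupled to calcium release via D2; after a 3 min kinetic read an EC80 dopamine stimulus is given and fluorescence is recorded for 3 more min.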", "values": [{"smiles": "CCN(CC)c1ccc(NC(=O)C(Cc2ccccc2)NS(=O)(=O)c2ccc(Br)s2)c(C)c1", "note": "(stereo not drawn)", "inhibition": "-8.71%"}, {"smiles": "COc1ccc2[nH]cc(C(O)CN3CCN(c4ccccc4F)CC3)c2c1", "note": "(stereo not drawn)", "inhibition": "active: 33.3%"}, {"smiles": "Cc1ccc(-n2nc3c(=O)n(CC(=O)Nc4ccccc4F)nc(C)c3c2C)c(C)c1", "inhibition": "0.53%"}, {"smiles": "COC(=O)c1ccc(Cl)cc1NC(=O)N1CC(C)Oc2ccccc21", "note": "(stereo not drawn)", "inhibition": "-13.2%"}, {"smiles": "CCOC(=O)c1ccc(NC(=O)c2cc3cc(C)ccc3n2C)cc1", "inhibition": "-8.28%"}, {"smiles": "Cc1ccc(NC(=O)Nc2nnc(N(C)Cc3ccccc3)s2)cc1", "inhibition": "11.1%"}, {"smiles": "Cc1cc(NS(=O)(=O)c2ccc(NC(=O)COc3ccc(Cl)cc3)cc2)nc(C)n1", "inhibition": "12.6%"}, {"smiles": "Cc1c(Cl)c([N+](=O)[O-])nn1CC(=O)NCc1cccnc1", "inhibition": "active: 39.3%"}, {"smiles": "COc1ccc2c(CNCc3ccc(C)o3)c(C(=O)O)n(Cc3ccccc3)c2c1", "inhibition": "-17.5%"}, {"smiles": "CCOc1cc(-c2nc(-c3ccc(-c4ccc(C)cc4)nc3OC)no2)cc(OCC)c1OCC", "inhibition": "-0.786%"}, {"smiles": "CCC(=O)N(Cc1ccco1)Cc1cc2cccc(C)c2n2nnnc12", "inhibition": "active: 34%"}, {"smiles": "COc1ccc(Cl)cc1NC(=O)Cn1c2ncccc2c(=O)n1-c1ccc(C)c(C)c1", "inhibition": "14.2%"}, {"smiles": "Cc1cccc(CCNC(=O)c2cc3ccccn3n2)c1", "inhibition": "3.93%"}, {"smiles": "Cc1cc(C)cc(N(CC(=O)Nc2cccc(C)c2C)S(=O)(=O)c2c(C)[nH]c(=O)[nH]c2=O)c1", "inhibition": "16.4%"}, {"smiles": "COc1ccc(C2C=C(c3ccccc3)Nc3nc(NC(=O)c4ccc(C)cc4)nn32)cc1", "note": "(stereo not drawn)", "inhibition": "2.12%"}, {"smiles": "CCOC(=O)c1c(C)oc2ccc(N(C(=O)Oc3ccccc3)S(=O)(=O)c3ccccc3)cc12", "inhibition": "6.02%"}, {"smiles": "CCN1CCN(C(c2ccc(OC)cc2)c2c(O)cc(C)n(CCOC)c2=O)CC1", "note": "(stereo not drawn)", "inhibition": "6.21%"}, {"smiles": "CCOc1ccc(/C=C(\\C#N)c2nc(-c3cc4ccccc4oc3=O)cs2)c(OCC)c1", "inhibition": "0.701%"}, {"smiles": "COc1ccccc1NC(=O)c1c(NCc2sccc2C)sc2c1CCCCC2", "inhibition": "8.65%"}, {"smiles": "CN(C(=O)Cn1c(=O)n(CCCS(=O)(=O)C2CCCCC2)c(=O)c2ccccc21)c1ccccc1", "inhibition": "-14.7%"}, {"smiles": "CC(C)CN1C(=O)C(=O)N(CC(=O)NC(C)CCc2ccccc2)C1=O", "note": "(stereo not drawn)", "inhibition": "active: 52%"}, {"smiles": "CN(C(=O)c1cc(-c2ccccc2O)on1)c1ccccc1", "inhibition": "16.1%"}, {"smiles": "COc1ccc(S(=O)(=O)N2CCC(c3ccncc3)CC2)cc1Cl", "inhibition": "9.05%"}, {"smiles": "CCCCOc1c(Cl)cc(C(=O)N(Cc2ccc(C)o2)C2CCS(=O)(=O)C2)cc1Cl", "note": "(stereo not drawn)", "inhibition": "-27.7%"}, {"smiles": "Cc1cc(C)c2oc(C(=O)N(Cc3ccc(F)cc3)C3CCS(=O)(=O)C3)cc(=O)c2c1", "note": "(stereo not drawn)", "inhibition": "-1.94%"}, {"smiles": "C/C(N)=C(/C#N)C(=O)CSc1nnc(Nc2ccccc2)s1", "inhibition": "active: 48.6%"}, {"smiles": "CSc1ccc(CCNc2ncnc3onc(C)c23)cc1", "inhibition": "-12.2%"}, {"smiles": "COc1ccc(NC(=O)C2=C(C)Nc3nc(SCc4ccccc4C)nn3C2c2ccc(Br)cc2)cc1", "note": "(stereo not drawn)", "inhibition": "16.3%"}, {"smiles": "Cc1cccc(NC(=O)C2CCN(S(=O)(=O)c3cccc4nsnc34)CC2)c1C", "inhibition": "-12%"}, {"smiles": "Cc1occc1C(=O)Nc1c(F)cc(F)cc1Br", "inhibition": "active: 34%"}, {"smiles": "Cc1cc(C)cc(NC(=O)CSc2nccn2-c2ccccc2)c1", "inhibition": "4.03%"}, {"smiles": "Cc1cc(Br)ccc1NC(=O)c1cc2c(=O)n(C)c3cc(Cl)ccc3c2s1", "inhibition": "15.5%"}, {"smiles": "O=C(NC1CC(=O)N(c2ccccc2)C1)C1CCCCC1", "note": "(stereo not drawn)", "inhibition": "0.0054%"}, {"smiles": "Cc1cccc2nc(-c3cccnc3)c(Nc3ccc(C(C)C)cc3)n12", "inhibition": "-8.76%"}, {"smiles": "Cc1ccc(NC(=O)OCCN2CCN(Cc3ccccc3)CCC2=O)cc1", "inhibition": "active: 42.7%"}, {"smiles": "CC(CC(=O)NCc1ccc(Cl)cc1)CC1=NS(=O)(=O)c2ccccc2N1", "note": "(stereo not drawn)", "inhibition": "7.9%"}, {"smiles": "O=C(Cn1cc(SCc2ccc(C(F)(F)F)cc2)c2ccccc21)N1CCCCC1", "inhibition": "-16.1%"}, {"smiles": "Cc1cccc(Nc2nnc(-n3nc(C)cc3C)c3ccccc23)c1", "inhibition": "-6.61%"}, {"smiles": "CCc1cccc2c(-c3ccccc3)nc(SCC(=O)Nc3ccccc3)nc12", "inhibition": "-4.74%"}, {"smiles": "COc1ccc(N2CCN(CCCNC(=O)C3COc4ccc(OC)cc4C3)CC2)cc1", "note": "(stereo not drawn)", "inhibition": "6.35%"}, {"smiles": "COc1ccc(-c2cc(C)no2)cc1S(=O)(=O)NCc1ccc(OC(C)C)cc1", "inhibition": "5.11%"}, {"smiles": "COc1cc(NC(=O)c2cc(-c3ccc4c(c3)OCO4)on2)cc(OC)c1OC", "inhibition": "18.5%"}, {"smiles": "COc1ccc(S(=O)(=O)c2cn(C)c3cc(N4CCCCC4)c(F)cc3c2=O)cc1", "inhibition": "3.23%"}, {"smiles": "CC(=O)c1ccc(N2CCN(c3nc4c(S(=O)(=O)c5ccccc5)nnn4c4ccc(Cl)cc34)CC2)cc1", "inhibition": "-3.01%"}, {"smiles": "Cc1c(-c2nsc(NC(=O)c3ccc(Cl)cc3)n2)nnn1-c1ccc(C(C)C)cc1", "inhibition": "7.16%"}, {"smiles": "COc1ccc(NC(=O)c2cnn(-c3ccc(C)cc3)c2-n2cccc2)cc1Cl", "inhibition": "-1.91%"}, {"smiles": "Cc1ccc(-c2cc(N)n3nc(-c4ccc(C)cc4)cc3n2)cc1", "inhibition": "9.81%"}, {"smiles": "CCOC(=O)c1noc2ncnc(Nc3ccc(C)c(F)c3)c12", "inhibition": "1.21%"}, {"smiles": "CCOC(=O)c1noc2ncnc(N(CCC(=O)OC)c3ccccc3)c12", "inhibition": "25.3%"}, {"smiles": "COc1ccc(OC)c(C2CC(=O)c3c([nH]c(C(=O)OC4CCC(C)CC4)c3C)C2)c1", "note": "(stereo not drawn)", "inhibition": "3.47%"}, {"smiles": "O=C(C[n+]1cc(-c2ccccc2)n2c1CCC2)Nc1nc(-c2ccc(F)cc2)cs1", "inhibition": "active: 75.6%"}, {"smiles": "Cc1ccc2c(c1)sc1nc(=O)n(-c3ccc(Cl)cc3)c(=O)n12", "inhibition": "0.0825%"}, {"smiles": "CN1CCN(CCCNC(=O)Cn2c(-c3cccs3)cc3ccccc32)CC1", "inhibition": "13.1%"}, {"smiles": "CCOC(=O)c1ccc(NC(=O)c2c(N3CCCC3=O)c3cc(OC)ccc3n2C)cc1", "inhibition": "0.414%"}, {"smiles": "Cc1ccc(C)c(N2CCN(C(=O)Cn3ncc4ccsc4c3=O)CC2)c1", "inhibition": "3.39%"}, {"smiles": "Cc1cc2oc(C(=O)N(Cc3ccccc3F)C3CCS(=O)(=O)C3)c(C)c2cc1Cl", "note": "(stereo not drawn)", "inhibition": "2.34%"}, {"smiles": "Cc1c(Cl)cccc1NC(=O)CN1C(=O)COc2ccc(S(=O)(=O)N3CCOCC3)cc21", "inhibition": "0.33%"}, {"smiles": "CC1=C(C(=O)OCC2CCCCC2)C(c2cccc(Cl)c2Cl)CC(=O)N1", "note": "(stereo not drawn)", "inhibition": "5.47%"}, {"smiles": "Cc1ccc(C2CC(=O)Nc3cc4c(cc32)OCCO4)cc1", "note": "(stereo not drawn)", "inhibition": "-15.3%"}, {"smiles": "CC(=O)N1CCCC1c1nc2ccccc2n1Cc1ccccc1", "note": "(stereo not drawn)", "inhibition": "10.7%"}, {"smiles": "CC1CCCN(CCOCCOc2ccc(Br)cc2Cl)C1", "note": "(stereo not drawn)", "inhibition": "active: 51.6%"}, {"smiles": "CCOc1ccc(C(=O)c2oc3ccccc3c2NC(=O)Cc2coc3cc(C)cc(C)c23)cc1", "inhibition": "-0.242%"}, {"smiles": "CCc1ccc(Cn2c(CNS(=O)(=O)c3ccc(F)c(Cl)c3)nc3cccnc32)cc1", "inhibition": "21%"}]}]}
